From PubChem BioAssay AID602233 (National Center for Advancing Translational Sciences (NCATS), 2012)
The campaign covered roughly 380,000 compounds. About 170 (0.045%) were called active. The call rests on the fitted dose curve; in most records, active means well fitted inhibition curve with a large enough effect; inconclusive means small, poorly fitted or top-dose-only effect; inactive means no such curve, though single readings can be large or run the other way. This is a selection; strong and weak results do not stand in their true shares.

Target: Phosphoglycerate kinase, glycosomal (Trypanosoma brucei brucei) (UniProt P07378)
Assay: qHTS Assay to Find Inhibitors of Phosphoglycerate Kinase; further: nearly all actives have a fitted effect of over 60% in size
Details: PGK/GAPDH coupled, Kinase-Glo luminescence, 60 min; series mostly up to 57.5 µM; activity change, negative = inhibition: at the top concentration
Outline: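 Luminescent ATP detection (Kinase-Glo Plus) follows a 60-minute room-temperature incubation, with wells lacking PGK as controls. Buffer: 100 mM TEA (pH 7.6), 5 mM MgCl2, 0.01% Tween-20. Coupling enzyme GAPDH (100 nM final) supplies unstable 1,3-BPG in-well.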
On the % scale 0 is the no-effect control and ±100 the full control effect; potency means the concentration at half of the fitted maximal effect.

Compound	activity change, negative = inhibition	outcome	Potency
COC(=O)C1=CO[C@@H](O[C@@H]2O[C@H](CO)[C@@H](O)[C@H](O)[C@H]2O)C2C1C=C[C@@]2(O)CO (some centres not stated)	inactive: -3.91%		
CCN(CC)C(=O)c1cncc(C(=O)N(CC)CC)c1-c1ccccc1	inactive: 18.5%		
CCCCn1c(N)c(N(Cc2ccccc2OC)C(=O)CSCC(=O)Nc2cccc(C)c2)c(=O)[nH]c1=O	inactive: 22.7%		
C[C@@H]1O[C@@H](OC[C@@H]2O[C@H](Oc3c(-c4ccc(O)cc4)oc4cc(O)cc(O)c4c3=O)[C@@H](O)[C@H](O)[C@H]2O)[C@H](O)[C@H](O)[C@H]1O		inactive	
C/C(N)=C(/C#N)C(=O)CSc1nnc(Nc2c(C)cccc2C)s1	inactive: -21%		
O=C(O)C(c1ccccc1)N1C(=O)/C(=C\c2ccc(-c3ccccc3Cl)o2)SC1=S (configuration not stated)			active: 11.2 µM
O=C1COc2ccc(C(=O)COC(=O)CNC(=O)C3CCCCC3)cc2N1	inactive: -2.84%		
COc1ccc(CCN2CC(C(=O)NCCc3ccc(C)cc3)CC2=O)cc1OC (configuration not stated)	inactive: -24.6%		
CCOc1ccccc1N(C)C(=O)c1sc2nc3n(c(=O)c2c1C)CCCC3	inactive: 15.9%		
CC(=O)CSc1nnc(-c2ccc(S(=O)(=O)N3CCC(C)CC3)cc2)o1	inactive: 25.1%		
COc1cc2c(C#N)c(N3CCCC3)nc(N)c2c(N)n1	inactive: -9.43%		
C[C@@H]1O[C@@H](Oc2c(-c3cc(O)c(O)c(O)c3)oc3cc(O)cc(O)c3c2=O)[C@H](O)[C@H](O)[C@H]1O	inactive: -29.9%		
CC(C)(C)OC(=O)C[C@H]1C/C=C\C[C@@H](CC(=O)N(CCO)Cc2ccccc2)C(=O)NC[C@@H](c2ccccc2)OC1=O	inactive: 9.9%		
O=C(O)c1cccc(-n2cccc2/C=C2/NC(=O)N(c3ccc(Cl)cc3)C2=O)c1			active: 3.16 µM
CCc1cc(C(c2ccc(OC)c(OC)c2)N2CCOCC2)c(NC(=O)c2ccccc2)s1 (configuration not stated)	inactive: 20%		
CC(C)(C)OC(=O)C[C@@H]1C/C=C\C[C@H](CC(=O)N[C@@H](CO)Cc2ccccc2)C(=O)N[C@H](C(C)(C)C)COC1=O	inactive: -0.616%		
Nc1nc(=S)c2ncn([C@@H]3O[C@H](CO)[C@@H](O)[C@H]3O)c2[nH]1	inactive: -4.42%		
CCCCCC(=O)NNC(=S)NC(=O)c1ccccc1[N+](=O)[O-]	inactive: 30.8%		
Cc1nn2c(c1-c1ccccc1)NC1=C(C(=O)CCC1)C2c1ccccc1 (configuration not stated)	inactive: 28.9%		
CS(=O)(=O)c1ccc2c(c1)sc1nc(=O)c(/C=C3/C=CC(=O)C(O)=C3)c(N)n12			active: 12.6 µM
CC(C)(C)OC(=O)C[C@H]1C/C=C\C[C@H](CC(=O)NCCO)C(=O)N2CCC[C@@H]2COC1=O		inactive	
Cc1cc(C)n(-c2nc3ccccc3n3c(C)nnc23)n1	inactive: 3.22%		
